Over roughly 33,000 sequences, “E-score (-0.5 to 0.5)” has its median near -0.035; the highest 2% begin near 0.35. This is one part of the list.
Target: T1, Pdr3 (UniProt P33200)
T1 sequence: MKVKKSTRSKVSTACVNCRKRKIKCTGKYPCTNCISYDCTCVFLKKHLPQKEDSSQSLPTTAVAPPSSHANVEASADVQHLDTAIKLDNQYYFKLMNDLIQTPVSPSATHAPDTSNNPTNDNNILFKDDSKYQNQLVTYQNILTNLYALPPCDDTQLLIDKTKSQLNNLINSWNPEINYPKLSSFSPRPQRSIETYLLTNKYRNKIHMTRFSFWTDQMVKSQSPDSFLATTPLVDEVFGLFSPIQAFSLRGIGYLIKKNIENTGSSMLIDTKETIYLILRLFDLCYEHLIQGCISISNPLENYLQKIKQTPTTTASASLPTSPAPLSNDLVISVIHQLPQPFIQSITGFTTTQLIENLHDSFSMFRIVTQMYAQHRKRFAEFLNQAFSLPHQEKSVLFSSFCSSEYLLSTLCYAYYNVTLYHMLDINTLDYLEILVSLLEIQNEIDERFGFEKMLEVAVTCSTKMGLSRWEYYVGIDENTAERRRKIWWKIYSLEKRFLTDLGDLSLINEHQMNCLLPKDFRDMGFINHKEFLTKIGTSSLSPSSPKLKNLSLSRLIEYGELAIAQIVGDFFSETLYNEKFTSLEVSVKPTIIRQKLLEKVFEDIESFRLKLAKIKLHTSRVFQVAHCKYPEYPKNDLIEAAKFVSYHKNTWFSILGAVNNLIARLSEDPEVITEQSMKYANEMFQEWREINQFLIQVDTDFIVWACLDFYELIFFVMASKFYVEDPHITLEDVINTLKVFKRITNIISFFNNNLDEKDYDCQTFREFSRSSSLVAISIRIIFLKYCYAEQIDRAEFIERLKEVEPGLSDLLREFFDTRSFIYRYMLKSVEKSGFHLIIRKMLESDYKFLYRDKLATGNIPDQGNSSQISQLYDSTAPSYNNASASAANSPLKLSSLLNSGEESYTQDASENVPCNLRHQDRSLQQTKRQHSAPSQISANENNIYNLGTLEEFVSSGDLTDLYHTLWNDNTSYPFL
Experiment: PBM E-score (8-mer binding enrichment) (E-score (-0.5 to 0.5)); higher = stronger / more preferred TF binding; most listed sequences are background and not binding sites
Settings: protein concentration: 200 nM; construct: GST-full length
Description: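 Universal 'all 10-mer' protein binding microarrays (Agilent AMADID 015681) probed with GST-tagged S. cerevisiae TFs (full-length or DBD) made by in vitro transcription/translation (PURExpress), about 100-200 nM. Bound TF was detected with fluorescent anti-GST. Each ungapped 8-mer (which stands for itself and its reverse complement) is scored by the PBM enrichment score (E-score), a modified Wilcoxon-Mann-Whitney statistic from -0.5 to +0.5, computed with the Universal PBM Analysis Suite. Scale: above 0.35 generally sequence-specific binding.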

| Sequence | PBM E-score |
| --- | --- |
| CCACTGGC | 0.0313 |
| GCAAATTA | 0.0295 |
| CGGCGAGC | 0.235 |
| GCGATAAA | 0.00239 |
| ACTGGGAG | -0.0493 |
| AGCGGGGG | -0.158 |
| CAGGCGAA | -0.225 |
| AATAGTAA | -0.0428 |
| AAGTTGCC | 0.22 |
| ATGGCCCG | 0.226 |
| AAGGCTCA | -0.135 |
| AGGGGTCA | -0.117 |
| CATTCGTA | -0.19 |
| TACTCTAA | -0.129 |
| ACATCATG | 0.00695 |
| GCTGACAC | -0.0583 |
| CGCTTCAA | -0.042 |
| CCTTTCGA | -0.0541 |
| GCGCTTTA | 0.0174 |
| AGTTCTTC | 0.0309 |
| ACTACACG | -0.0428 |
| ATCTTTTG | -0.0527 |
| AGTTACTA | -0.188 |
| CGATCAAG | -0.0706 |
| GACTAGGA | -0.205 |

| Sequence | PBM E-score |
| --- | --- |
| CTGGCCTA | -0.119 |
| GAGCAACA | -0.1 |
| CACGGCTA | 0.171 |
| TCGGACCA | 0.292 |
| CTATGACC | -0.117 |
| AACTATCG | -0.0648 |
| GCGAGATA | 0.105 |
| ACGAGAGC | -0.0921 |
| ACTAGCTA | 0.0117 |
| AGGGCTAA | -0.187 |
| CTAGTAAA | 0.11 |
| ACAGGCGA | -0.114 |
| CGACTGCC | -0.0106 |
| ATTAAACG | 0.0486 |
| ACAGCTCG | -0.0493 |
| GACCTTCA | -0.00701 |
| AAGGACGT | -0.142 |
| TATGGGGA | 0.144 |
| ACATGCCG | 0.289 |
| TAGCGCTA | -0.0551 |
| ATCGGTAC | 0.101 |
| ATCATAGA | 0.0765 |
| CTATCGTC | -0.201 |
| CTGGCTTC | -0.202 |
| ACGAAAAC | 0.0879 |

| Sequence | PBM E-score |
| --- | --- |
| AAAGTCGT | -0.204 |
| AAGCGGCT | 0.101 |
| ATCCCAAC | -0.13 |
| CAAAACTG | -0.0643 |
| CCTTTGAC | -0.144 |
| CTCTTGGC | -0.178 |
| CGCGTCAC | -0.0401 |
| ATTTCAGG | 0.0853 |
| GCCATTGA | -0.0156 |
| CCAACTTA | 0.0261 |
| GAAGCTGC | -0.0188 |
| ATGTTGGC | 0.0996 |
| AAGTGACC | -0.0704 |
| CGAAGGCA | -0.164 |
| AGAATGCG | 0.0628 |
| AGCAGCCG | 0.118 |
| TCAGCCAA | -0.184 |
| ATCTCGCA | -0.0558 |
| AAGACTAA | -0.101 |
| ATGTCACA | 0.0202 |
| TGATGGAA | -0.0643 |
| AATGTGAG | -0.199 |
| GTTTAAAA | -0.0898 |
| CTAGCGTA | -0.128 |
| AGACTAGC | -0.389 |

| Sequence | PBM E-score |
| --- | --- |
| AAGTTGCT | -0.0641 |
| GTACCTAC | -0.178 |
| ACCTGTTA | -0.261 |
| CTCACCGA | 0.0691 |
| ACTTTTGC | -0.0639 |
| GGACACTA | 0.0015 |
| AGTATCGA | 0.142 |
| ACACCCAA | 0.00439 |
| AGGCATTG | -0.0729 |
| CGACAGCG | 0.139 |
| TACGAATA | -0.189 |
| ACAGGACA | 0.109 |
| CGCACTGA | 0.00147 |
| ACCCGCCG | 0.388 |
| GCTAAGGA | -0.244 |
| AACTTCTG | -0.00451 |
| CCGCGTAC | 0.108 |
| ACCGACGC | -0.117 |
| CCAAGGGA | -0.252 |
| CACGGCGA | 0.124 |
| CCTTCACA | -0.189 |
| CTGACGGA | 0.274 |
| ACACCAAG | -0.096 |
| AATCGAGC | 0.0969 |
| GGTGTTCA | -0.103 |

| Sequence | PBM E-score |
| --- | --- |
| AGCAGCAT | -0.0468 |
| CGAGCTGA | 0.143 |
| AGGTGACC | -0.0776 |
| ACTACTCC | 0.244 |
| GATGTATA | 0.0147 |
| TCCTGGAA | -0.0272 |
| CCCACACC | -0.0614 |
| GCCGCAAA | 0.191 |
| ACCCTAAA | -0.0121 |
| TATTAGAA | 0.0715 |
| AGGAAAAA | -0.157 |
| CCCATGGG | 0.269 |
| GTATACTA | -0.0867 |
| ACCATGGG | -0.0796 |
| GCAGGTAC | -0.104 |
| ATGCTACC | 0.126 |
| CGCTACAG | -0.122 |
| AAAGCGAT | -0.0214 |
| GGAAAAAA | 0.239 |
| CAAGACGC | 0.00531 |
| ATTCGATA | -0.105 |
| GAGAAAAA | 0.176 |
| CACCAAGG | -0.143 |
| TCCGGTAA | 0.307 |
| CGTAATGC | 0.00552 |

| Sequence | PBM E-score |
| --- | --- |
| AATACCTA | -0.112 |
| TCAAGAAA | 0.00042 |
| AGAAGCAT | -0.105 |
| AAGGTTCT | -0.0466 |
| CCTGGTTC | 0.0601 |
| CTATGTCC | 0.0411 |
| AAGAAAAC | -0.0526 |
| ATATCGAA | 0.139 |
| ATACGGAC | 0.239 |
| ACGATCTC | 0.0299 |
| CAGCGGGA | 0.24 |
| AGAAAATC | -0.0854 |
| ACGATTTC | 0.051 |
| AGATCGAT | -0.0103 |
| ACACACCG | 0.11 |
| AGTCTCTG | -0.135 |
| ATCAAGTC | -0.158 |
| ACCCACAG | -0.278 |
| CGCGAATA | 0.15 |
| CAGAAATC | -0.108 |
| CAGACGTC | -0.23 |
| CCGTGAAC | 0.234 |
| CGATTTTA | -0.107 |
| AAGACCAG | -0.0462 |
| AACTACGC | 0.0535 |

| Sequence | PBM E-score |
| --- | --- |
| GTCCACAC | -0.00599 |
| GATATATC | 0.199 |
| ACTGAGTA | -0.219 |
| CTGGAATA | 0.08 |
| AACAGGCA | -0.182 |
| GTCACCCA | -0.0756 |
| CTTACACA | -0.285 |
| CGTTTAGA | -0.0405 |
| GAGCGCCA | 0.0542 |
| GTAGCAAC | -0.0159 |
| CACGTTGG | -0.3 |
| ACGGCGCG | 0.272 |
| ACTCCATA | -0.0901 |
| CGTCGACC | 0.0668 |
| ATAGCCGC | 0.14 |
| CACCGCAG | 0.0596 |
| ACAGCAAA | -0.0725 |
| CGTGGAAA | 0.243 |
| AGAGCATA | -0.0889 |
| CGCAGCAC | -0.036 |
| AATATGGG | -0.0889 |
| CTTGCTCA | -0.164 |

Source: the supplement of paper PMC3334620
